The supplement of paper PMC8728848
Some of the results follow.

Key:
Assay in all cases: glycan array binding signal (z-score within array); higher = stronger binding
Conditions in all cases: glycan notation: IUPAC condensed, linker removed
[1] = target: Gal(b1-4)GlcNAc(b1-2)[Gal(b1-4)GlcNAc(b1-4)]Man(a1-3)[GlcNAc(b1-4)][Gal(b1-4)GlcNAc(b1-2)[Gal(b1-4)GlcNAc(b1-6)]Man(a1-6)]Man(b1-4)GlcNAc(b1-4)GlcNAc
Summary of the method: (§1)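 Glycan array data were curated from 3228 arrays in the Consortium for Functional Glycomics database and kept only where the protein sequence was available. Glycan names were converted to IUPAC-condensed notation, and columns mapping to the same glycan were averaged. The binding signal is a within-array Z-score, averaged across arrays of the same protein sequence at different concentrations or buffers and across linkers. Negative Z-scores can be read as non-binding.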

[2] = target: Gal(b1-4)GlcNAc(b1-2)[Gal(b1-4)GlcNAc(b1-6)]Man(a1-6)[Gal(b1-4)GlcNAc(b1-2)Man(a1-3)]Man(b1-4)GlcNAc(b1-4)GlcNAc
Summary of the method: as §1

[3] = target: Gal(b1-4)GlcNAc(b1-2)[Gal(b1-4)GlcNAc(b1-6)]Man(a1-6)[Gal(b1-4)GlcNAc(b1-2)Man(a1-3)]Man(b1-4)GlcNAc(b1-4)[Fuc(a1-6)]GlcNAc
Summary of the method: as §1

[4] = target: Gal(b1-4)GlcNAc(b1-2)[Gal(b1-4)GlcNAc(b1-6)]Man(a1-6)[GlcNAc(b1-4)][Gal(b1-4)GlcNAc(b1-2)Man(a1-3)]Man(b1-4)GlcNAc(b1-4)GlcNAc
Summary of the method: as §1

[5] = target: Gal(b1-4)GlcNAc(b1-2)[Gal(b1-4)GlcNAc(b1-6)]Man(a1-6)[GlcNAc(b1-4)][Gal(b1-4)GlcNAc(b1-2)[Gal(b1-4)GlcNAc(b1-4)]Man(a1-3)]Man(b1-4)GlcNAc(b1-4)[Fuc(a1-6)]GlcNAc
Summary of the method: as §1

[6] = target: Gal(b1-4)GlcNAc(b1-3)Gal(b1-3)GalNAc
Summary of the method: as §1

[7] = target: Gal(b1-4)GlcNAc(b1-3)Gal(b1-3)GlcNAc
Summary of the method: as §1

[8] = target: Gal(b1-4)GlcNAc(b1-3)Gal(b1-4)Glc
Summary of the method: as §1

[9] = target: Gal(b1-4)GlcNAc(b1-3)Gal(b1-4)GlcNAc
Summary of the method: as §1

[10] = target: Gal(b1-4)GlcNAc(b1-3)Gal(b1-4)GlcNAc(b1-2)Man(a1-3)[Gal(b1-4)GlcNAc(b1-3)Gal(b1-4)GlcNAc(b1-2)Man(a1-6)]Man(b1-4)GlcNAc(b1-4)GlcNAc
Summary of the method: as §1

[11] = target: Gal(b1-4)GlcNAc(b1-3)Gal(b1-4)GlcNAc(b1-2)Man(a1-3)[Gal(b1-4)GlcNAc(b1-3)Gal(b1-4)GlcNAc(b1-2)Man(a1-6)]Man(b1-4)GlcNAc(b1-4)[Fuc(a1-6)]GlcNAc
Summary of the method: as §1

[12] = target: Gal(b1-4)GlcNAc(b1-3)Gal(b1-4)GlcNAc(b1-2)[Gal(b1-4)GlcNAc(b1-3)Gal(b1-4)GlcNAc(b1-6)]Man(a1-6)[Gal(b1-4)GlcNAc(b1-3)Gal(b1-4)GlcNAc(b1-2)Man(a1-3)]Man(b1-4)GlcNAc(b1-4)GlcNAc
Summary of the method: as §1

[13] = target: Gal(b1-4)GlcNAc(b1-3)Gal(b1-4)GlcNAc(b1-2)[Gal(b1-4)GlcNAc(b1-3)Gal(b1-4)GlcNAc(b1-6)]Man(a1-6)[Gal(b1-4)GlcNAc(b1-3)Gal(b1-4)GlcNAc(b1-2)Man(a1-3)]Man(b1-4)GlcNAc(b1-4)[Fuc(a1-6)]GlcNAc
Summary of the method: as §1

[14] = target: Gal(b1-4)GlcNAc(b1-3)Gal(b1-4)GlcNAc(b1-3)Gal(b1-4)GlcNAc
Summary of the method: as §1

[15] = target: Gal(b1-4)GlcNAc(b1-3)Gal(b1-4)GlcNAc(b1-3)Gal(b1-4)GlcNAc(b1-2)Man(a1-3)[Gal(b1-4)GlcNAc(b1-3)Gal(b1-4)GlcNAc(b1-3)Gal(b1-4)GlcNAc(b1-2)Man(a1-6)]Man(b1-4)GlcNAc(b1-4)GlcNAc
Summary of the method: as §1

[16] = target: Gal(b1-4)GlcNAc(b1-3)Gal(b1-4)GlcNAc(b1-3)Gal(b1-4)GlcNAc(b1-2)Man(a1-3)[Gal(b1-4)GlcNAc(b1-3)Gal(b1-4)GlcNAc(b1-3)Gal(b1-4)GlcNAc(b1-2)Man(a1-6)]Man(b1-4)GlcNAc(b1-4)[Fuc(a1-6)]GlcNAc
Summary of the method: as §1

[17] = target: Gal(b1-4)GlcNAc(b1-3)Gal(b1-4)GlcNAc(b1-3)Gal(b1-4)GlcNAc(b1-2)[Gal(b1-4)GlcNAc(b1-3)Gal(b1-4)GlcNAc(b1-3)Gal(b1-4)GlcNAc(b1-6)]Man(a1-6)[Gal(b1-4)GlcNAc(b1-3)Gal(b1-4)GlcNAc(b1-3)Gal(b1-4)GlcNAc(b1-2)Man(a1-3)]Man(b1-4)GlcNAc(b1-4)[Fuc(a1-6)]GlcNAc
Summary of the method: as §1

[18] = target: Gal(b1-4)GlcNAc(b1-3)Gal(b1-4)GlcNAc(b1-3)Gal(b1-4)GlcNAc(b1-3)Gal(b1-4)GlcNAc(b1-2)Man(a1-3)[Gal(b1-4)GlcNAc(b1-3)Gal(b1-4)GlcNAc(b1-3)Gal(b1-4)GlcNAc(b1-3)Gal(b1-4)GlcNAc(b1-2)Man(a1-6)]Man(b1-4)GlcNAc(b1-4)GlcNAc
Summary of the method: as §1

[19] = target: Gal(b1-4)GlcNAc(b1-3)Gal(b1-4)GlcNAc(b1-3)Gal(b1-4)GlcNAc(b1-3)Gal(b1-4)GlcNAc(b1-2)Man(a1-3)[Gal(b1-4)GlcNAc(b1-3)Gal(b1-4)GlcNAc(b1-3)Gal(b1-4)GlcNAc(b1-3)Gal(b1-4)GlcNAc(b1-2)Man(a1-6)]Man(b1-4)GlcNAc(b1-4)[Fuc(a1-6)]GlcNAc
Summary of the method: as §1

[20] = target: Gal(b1-4)GlcNAc(b1-3)Gal(b1-4)GlcNAc(b1-3)Gal(b1-4)GlcNAc(b1-3)Gal(b1-4)GlcNAc(b1-2)[Gal(b1-4)GlcNAc(b1-3)Gal(b1-4)GlcNAc(b1-3)Gal(b1-4)GlcNAc(b1-3)Gal(b1-4)GlcNAc(b1-6)]Man(a1-6)[Gal(b1-4)GlcNAc(b1-3)Gal(b1-4)GlcNAc(b1-3)Gal(b1-4)GlcNAc(b1-3)Gal(b1-4)GlcNAc(b1-2)Man(a1-3)]Man(b1-4)GlcNAc(b1-4)[Fuc(a1-6)]GlcNAc
Summary of the method: as §1

[21] = target: Gal(b1-4)GlcNAc(b1-3)Gal(b1-4)GlcNAc(b1-3)Gal(b1-4)GlcNAc(b1-3)Gal(b1-4)GlcNAc(b1-3)Gal(b1-4)GlcNAc(b1-2)Man(a1-3)[Gal(b1-4)GlcNAc(b1-3)Gal(b1-4)GlcNAc(b1-3)Gal(b1-4)GlcNAc(b1-3)Gal(b1-4)GlcNAc(b1-3)Gal(b1-4)GlcNAc(b1-2)Man(a1-6)]Man(b1-4)GlcNAc(b1-4)GlcNAc
Summary of the method: as §1

[22] = target: Gal(b1-4)GlcNAc(b1-3)Gal(b1-4)GlcNAc(b1-3)Gal(b1-4)GlcNAc(b1-3)Gal(b1-4)GlcNAc(b1-3)Gal(b1-4)GlcNAc(b1-2)Man(a1-3)[Gal(b1-4)GlcNAc(b1-3)Gal(b1-4)GlcNAc(b1-3)Gal(b1-4)GlcNAc(b1-3)Gal(b1-4)GlcNAc(b1-3)Gal(b1-4)GlcNAc(b1-2)Man(a1-6)]Man(b1-4)GlcNAc(b1-4)[Fuc(a1-6)]GlcNAc
Summary of the method: as §1

B1: AAL (Agrocybe aegerita), Q6WY08 (protein)
chain: MQGVNIYNISAGTSVDLAAPVTTGDIVTFFSSALNLNAGAGNPNNTTLNLFAENGAYLLHIAFRLQENVIIFNSRQPDGPWLVEQRVSDVANQFAGIDGKAMVTVFDHGDKYQVVINEKTVIQYTKQISGLTLSLSYNATEETSIFSTVVEAVTYTGLALEHHHHHH
Q: Which “glycan array binding signal (z-score)” value [1] does the source give for B1 here?
A: The value was -0.108.

Q: And the “glycan array binding signal (z-score)” value [2]?
A: Its value is -0.127.

Q: What about the “glycan array binding signal (z-score)” value [3] of the same binder?
A: Its value is -0.102.

Q: What about the “glycan array binding signal (z-score)” value [4] of the same binder?
A: The value was -0.13.

Q: What about the “glycan array binding signal (z-score)” value [5] of the same binder?
A: The value was -0.09.

Q: What about the “glycan array binding signal (z-score)” value [6] of the same binder?
A: Its value is -0.127.

Q: What about the “glycan array binding signal (z-score)” value [7] of the same binder?
A: The value was -0.161.

Q: What about the “glycan array binding signal (z-score)” value [8] of the same binder?
A: Its value is -0.142.

Q: What about the “glycan array binding signal (z-score)” value [9] of the same binder?
A: Its value is -0.152.

Q: And the “glycan array binding signal (z-score)” value [10]?
A: The value was -0.106.

Q: And the “glycan array binding signal (z-score)” value [11]?
A: Its value is -0.117.

Q: And the “glycan array binding signal (z-score)” value [12]?
A: The value was -0.114.

Q: What about the “glycan array binding signal (z-score)” value [13] of the same binder?
A: The value was -0.085.

Q: And the “glycan array binding signal (z-score)” value [14]?
A: Its value is -0.158.

Q: And the “glycan array binding signal (z-score)” value [15]?
A: The value was -0.099.

Q: What about the “glycan array binding signal (z-score)” value [16] of the same binder?
A: The value was -0.06.

Q: What about the “glycan array binding signal (z-score)” value [17] of the same binder?
A: The value was 0.042.

Q: What about the “glycan array binding signal (z-score)” value [18] of the same binder?
A: Its value is 0.041.

Q: What about the “glycan array binding signal (z-score)” value [19] of the same binder?
A: Its value is -0.096.

Q: And the “glycan array binding signal (z-score)” value [20]?
A: Its value is -0.008.

Q: And the “glycan array binding signal (z-score)” value [21]?
A: Its value is -0.096.

Q: And the “glycan array binding signal (z-score)” value [22]?
A: The value was -0.099.
